This is one part of the list. At the low end of the ranking the order means little. Measured with an extract: partners may take part in the binding.

This assay has as its target T1, HNF4alpha2 (COS-7 nuclear extract) (UniProt P41235).
T1 sequence: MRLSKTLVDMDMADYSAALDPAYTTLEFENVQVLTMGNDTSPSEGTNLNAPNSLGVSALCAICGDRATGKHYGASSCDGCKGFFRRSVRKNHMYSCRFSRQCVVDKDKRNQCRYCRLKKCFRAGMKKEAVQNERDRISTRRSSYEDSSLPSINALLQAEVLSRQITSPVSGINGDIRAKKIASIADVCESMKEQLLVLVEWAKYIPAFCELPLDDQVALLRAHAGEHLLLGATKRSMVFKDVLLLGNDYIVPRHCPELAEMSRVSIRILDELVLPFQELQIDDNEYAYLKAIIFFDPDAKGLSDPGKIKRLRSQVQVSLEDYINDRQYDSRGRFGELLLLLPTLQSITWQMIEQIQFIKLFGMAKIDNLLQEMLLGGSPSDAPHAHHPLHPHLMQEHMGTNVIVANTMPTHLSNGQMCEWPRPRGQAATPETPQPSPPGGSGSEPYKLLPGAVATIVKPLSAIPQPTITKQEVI
Briefly: protein-binding microarray. The conditions noted are these: COS-7 nuclear extract on double-stranded Agilent 4x180k PBM; binding buffer, salt, pH and temperature not given; high values mean tight binding; double strand, one strand shown; sequences stand for … in …GCCTAGGGAGATTAGAGTATCGGTCGA
As for CCTTTCTGCCCTTTGAAGCATGTGATCTAC, the binding signal (log2 normalized intensity) was determined as 2.38.
On to CGGAGAGCAGGGCGTGGACTTCGCTCCGCC, for which the binding signal (log2 normalized intensity) is 4.92.
The figure for GAGCCCCTGTGATACAACGGTTCAAAGGAC is 2.16.
In the case of TCAGTTTGGCTCTTATGTCCCTCCTGACCT, the binding signal (log2 normalized intensity) worked out at 3.25.
Consider GGTCTGTTTGTGAAACAGTGGGCAATATGA, for which the binding signal (log2 normalized intensity) is 1.14.
The same measure for AACTCACTACAAACGCCTCTAAGCTCTTTC: -1.15.
TTTCTAAGAAAGTTCAGCCCTTAGGACCAG: the binding signal (log2 normalized intensity) was -1.17.
On to AAATCCCCAAACTTAAAAGAAGCTACTAGC, for which the binding signal (log2 normalized intensity) was -1.17.
The figure for TTCCCAGGAATTGGCCTGTGCCTCAATTGC is -0.315.
In the case of TTCCTTTCCCTTTATTTAGCCTCACTAAGA, the binding signal (log2 normalized intensity) was -0.978.
Consider CCACCCACACTGCAGCAAAACTTTAGGACT, for which the binding signal (log2 normalized intensity) is 0.141.
The figure for TGTGTGTAGGCATAGGAGAAACACATAAAC is -0.883; for GTCAGTCTTTGTTCTAGTAAGGCCTTCAAA it is 1.05.
As for ATTGGGATGGCAGCTTCATTCCAGCCCCAT, the binding signal (log2 normalized intensity) worked out at 1.27.
Consider GAGGAAACAAACAGATATGCATTTGTCTCT, for which the binding signal (log2 normalized intensity) was -1.17.
For the sequence CTCCGCTGAAGTCAATGTCAGCTAGAGGCC, the binding signal (log2 normalized intensity) was -1.13.
In the case of AGCAGAAAAGCTGTACCAATTATTGCGAGT, the binding signal (log2 normalized intensity) was -0.745.
The same measure for TTTTCCAGCAGCGGATCCAACCTGTTCTTT: 0.629; for TGACGGTATGTGAATGCCTGGGCATGGCTG: 0.0275.
Take TGAACTTTGCCTTGTACACAAAGACATTGC: the binding signal (log2 normalized intensity) was 2.29.
In the case of GAATGCAACCACACCAACATGGACTTTGTC, the binding signal (log2 normalized intensity) is 6.09.
The figure for CCCTCCTTAAGACCTAGATGGAATGTTGTG is 1.29.
For TCCATATTGCAGACAGCATAGGAAGTGGGG, the binding signal (log2 normalized intensity) was -1.13.
As for AACTTTGTTTGAGTTCCAAAGTCCATGTTC, the binding signal (log2 normalized intensity) was found to be 6.61.
As for CTTTTCACAGGAGAGGAGAAAGAGCAATCT, the binding signal (log2 normalized intensity) is -1.08.
Consider GCCCATGCTGGACCCTGGGCTTAGTTGCTC, for which the binding signal (log2 normalized intensity) is 2.35.
As to TGCTGCACTGATAAGAAAGCAAAGTCCAAC, the binding signal (log2 normalized intensity) turned out to be 4.21.
Turning to CCCCTGTGCAAACTTTTTCCTTTTCTTATC, the binding signal (log2 normalized intensity) is -0.0646.
For TTAACGCTAAAGAGGTATCATGAGGTATAT, the binding signal (log2 normalized intensity) was determined as 1.04.
In the case of AGCTGGGAGCTGCCGCAACATTGTCCAGCA, the binding signal (log2 normalized intensity) is -1.19.
With GTCTTACCGGGATTTTGTTGGGGAACTTTG, the binding signal (log2 normalized intensity) amounted to 1.82.
In the case of TTTTTTCCCCTCCCTCAGCTCTGCCCAGAC, the binding signal (log2 normalized intensity) turned out to be 4.53.
In the case of ACATTCCACTCAGTCTCTTGAAATCCCAAG, the binding signal (log2 normalized intensity) was -1.03.
The same measure for CACCCTACCCCCATACTTTATTTAGCTTTA: 1.79; for CCTCCTCCTCCTTTTTTTTTTCAAGTGTTA: 1.42.
The same measure for CTCACATGAGCTAGAGCTCGTGTCATCTCT: -0.899; for TGTGCTGGATGTTTCCTTTGAACTCTGCAT: 2.37.
For the sequence GGACTTCGCTCCGCCGCTAGGTGGCGGGCT, the binding signal (log2 normalized intensity) was found to be 1.42.
As to GTTTTCGCAGCAAGTTACACAAGTAGAATG, the binding signal (log2 normalized intensity) amounted to 0.574.
For CAGATTTAATGAAATACAGTAGACTTTTTT, the binding signal (log2 normalized intensity) is -1.27.
The figure for GCAGGACAGTTTTGTGTGTTTAATGTTTTC is 1.37.
The figure for TGGGAGAACCTGTGCTTCTGGTTCTGGACT is 2.15.
On to GCCCTTCCCCCCTCTGCAGCCTTACCCAGT, for which the binding signal (log2 normalized intensity) came out at 4.59.
The same measure for AATACTTATGATATGAAGCATTGCTTGAGT: 0.613.
With ATTATGGTAGGCAGCCTCTGAGATGGACTC, the binding signal (log2 normalized intensity) turned out to be 3.44.
The same measure for AGAAGTAGGATAAGGGTAGGGCCAATCTCT: -1.14; for GCTCTGGAATCTCTGGATTTCAGGTACACA: 0.577; for TAGATAACTCCAAGATTAGTGGGAAAGCTA: -0.908.
For GCAAGGAATTCAACCCTTGTCACTTTCCCT, the binding signal (log2 normalized intensity) was determined as 1.24.
The same measure for ATCAAAACCTTCATCTCTCTTTGTTGACAT: 1.81.
As to ACCCCTGAATAGGTCTTGGAATGTGACGGC, the binding signal (log2 normalized intensity) stood at 1.38.
With GCAGAGGCTGGGGCCCTCTTCCAGCTGAGA, the binding signal (log2 normalized intensity) is -1.12.
The same measure for CTTTGAAGCATGTGATCTACTCCCTGTTCT: 0.613.
Consider TTCCTGGTATCAGAGTGGAGCCAGATGCAC, for which the binding signal (log2 normalized intensity) is -0.737.
As to TGGGAAAAGGCGCATGCATAACCAAACAGA, the binding signal (log2 normalized intensity) is -1.1.
Turning to TATCCCTCCGCCTCCCTCCCCCTTTCTCCG, the binding signal (log2 normalized intensity) is 4.83.
The figure for TCATATATGCATTTGTCTCAGGTGGGCAGA is 1.5; for GGCCCCCACTAGAGAGACCGTCCCTGGGTA it is 2.98.
As for AGTCCTTCTAAAGCAAATTTATAGGCACTA, the binding signal (log2 normalized intensity) was -0.984.
The figure for TTAACCTCTATTGACCTTCTTATTTGGAGA is 2.04.
Regarding GTAACACAGAGGCAGTGGGACAATGAAGCC, the binding signal (log2 normalized intensity) was -1.06.
Regarding TCTTTGTTCTAGTAAGGCCTTCAAATGATT, the binding signal (log2 normalized intensity) worked out at 1.
On to GTCACTCAGCCCGAGAAACGATGTGAGGTC, for which the binding signal (log2 normalized intensity) turned out to be 0.454.
ATACTTTCAGCTAGCTGAGTGAGTAGGTTC: the binding signal (log2 normalized intensity) came out at 1.31.
The figure for GCCCGTGTGGGCGGGTGCAGCTTCCACCTG is -1.22; for CTGCCTCTCTGTGGAATCCTGCTAGCAGCT it is -1.08.
The figure for CTATTATGCCTTGACTTCAAATCATACTGA is 0.897; for CCGCCTTCACTCCCCTGACAGCATGTTCGG it is 0.579.
CAACAGGTCCAAGGTTCAGAGCCTGGCTGG: the binding signal (log2 normalized intensity) was 2.71.
The same measure for GAGGAAAAGCTGTCTACAAACACAGAAGTG: -1.05.
The figure for CAAGGACTGAAAGAACACAGCGCAGCACAC is -1.15; for CAGGACGCTACCCGCTTGGCGTAGGCAACT it is -1.1.
Turning to ACAACCTACTCTTTCTCTGATGTCTGCTGA, the binding signal (log2 normalized intensity) is 1.03.
Take TCCTGCTGTTCCTTCAACACACAAGGCCCA: the binding signal (log2 normalized intensity) worked out at 1.08.
The figure for TAGCACTCTGGACTCTGAATCCAGCGATCC is 1.83.
For the sequence GGGAAGCTGTGTGAAGTGACTTGCCCTGTT, the binding signal (log2 normalized intensity) was determined as 1.85.
For the sequence CTGCCTTTCCCAGATGGATTGATAGACTTA, the binding signal (log2 normalized intensity) stood at 0.627.
For the sequence CACACACACACACATTGCAGTATGCCCCCC, the binding signal (log2 normalized intensity) amounted to 5.1.
As to ATCTTATCAGAAACACACCCTTGGGGCTGA, the binding signal (log2 normalized intensity) is -1.05.
The same measure for CAACCCTTGACCCCAGTAACAAAGGAAAGA: 3; for ATTACATGGAAGCCTTACCAGTAGGACCAC: -1.05.
In the case of AGACATGGACTCTGGGATCTCAGGGTGGAC, the binding signal (log2 normalized intensity) is 1.7.
The figure for CTCGTGGCCTCCACACATTGCCACACTATT is -1.14; for CCGGGCGGCAGCACAAGGCGGTAGCCATGG it is -1.16; for GACCCCATACTTCAGCAATTTCTTAGTAAA it is 1.07.
Turning to GAGTACACACTGTAAAATTTCATGGCATTG, the binding signal (log2 normalized intensity) is -0.815.
The figure for TTCAAAGGAGGAGGCCTAGGCAGTCCACAG is -1.16; for GGGTCACGTGGGGCCGGTACAAAAGGCCAA it is 1.47; for GAAAAAGGTAAGGAGATAAGGTGATAAGGG it is -1.12.
For the sequence TGCCCTATGTCCTCCAGCTCTTGGGGAACA, the binding signal (log2 normalized intensity) is 0.0325.
As to AAAAGGGAGTTTTCTGCTCTCAACTAGAGA, the binding signal (log2 normalized intensity) was -1.1.
In the case of CTGCTCCCCGCCTTGGCCTCCCGGAGAGGC, the binding signal (log2 normalized intensity) is 1.87.
With GTCCAGTGACGGGTACAAGGAGGCCCCAAC, the binding signal (log2 normalized intensity) is -0.646.

Source of the values: article PMC10726135.
